{"source": "PubChem BioAssay AID651820", "about": "(National Center for Advancing Translational Sciences (NCATS), 2012)", "note": "The whole screen tested about 340,000 compounds, of which about 12,000 (3.5%) were called active. Inconclusive means that the source gave no clear call. Such entries were picked first, then a sample of the others. Calls come from the whole dose curve; as a rule, active = well fitted inhibition curve with a large enough effect; inconclusive = small, poorly fitted or top-dose-only effect, or another doubt; inactive = no such curve, though single readings can be large or run the other way. No potency is given beside an inconclusive call; the fits are too rough. % is set by controls: 0 for no effect and ±100 for the full control effect; potency is the fitted concentration of half-maximal effect; tags give direction and shape of the fitted curve.", "data": [{"experiment": "qHTS Assay for Inhibitors of Hepatitis C Virus (HCV)", "details": "Huh7.5.1 HCVcc-Cre (HCVcc is cell-culture hepatitis C virus) infection, luciferase reporter, 44 h; activity change, negative = inhibition: at 41.8 µM (top of the series) unless noted", "method_in_brief": "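After 44 h co-culture of compound, cells and HCVcc-Cre (~0.5 moi), substrate is added for 15 min at room temperature and luciferase measured over 15 sec. Cells were seeded at 1,000/well and pre-cultured 4 h.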", "values": [{"smiles": "Cn1nccc1C(=O)NC1CCCc2c1cnn2-c1ccc(F)cc1F", "note": "(stereo not given)", "Potency": "inconclusive [inhibitor, full curve]"}, {"smiles": "N#CC(C#N)=CN=c1ccn(Cc2ccc(Cl)cc2Cl)cc1", "Potency": "inconclusive [inhibitor, full curve]"}, {"smiles": "Cc1cc2cc(CN(Cc3cccs3)C(=S)NCc3ccco3)c(=O)[nH]c2cc1C", "Potency": "active: 11.2 µM"}, {"smiles": "O=C(CNc1cccc(S(=O)(=O)N2CCCC2)c1)Nc1cccc(C(F)(F)F)c1", "Potency": "inconclusive [inhibitor, partial curve]"}, {"smiles": "COC(=O)C1(Cc2ccc3c(c2)CCC3)Cc2ccc3c(c2C1=O)CCC3", "note": "(stereo not given)", "Potency": "inconclusive [inhibitor, single point]"}, {"smiles": "Cc1c(C(N)=O)c(-c2ccccc2)nn1-c1ccccc1", "activity change, negative = inhibition": "inactive: -6.68%"}, {"smiles": "O=C(C=C=Nc1ccccc1)C(=O)N=C=Cc1ccccc1", "Potency": "inconclusive [inhibitor, single point]"}, {"smiles": "Cc1ccc(CN(C)c2ccc(S(=O)(=O)N3CCCC3)cn2)cc1", "Potency": "inconclusive [inhibitor, single point]"}, {"smiles": "COc1ccc(Br)cc1-c1nc2c(c(=O)[nH]c(=O)n2Cc2ccccc2)n1C", "activity change, negative = inhibition": "inactive: 13.6%"}, {"smiles": "CCCCCc1ccc(-c2cn(CCc3c[nH]c4ccccc34)nn2)cc1", "Potency": "inconclusive [inhibitor, partial curve]"}, {"smiles": "Cc1ccc(NC(=O)c2n[nH]c(=O)c3ccccc23)cc1S(=O)(=O)N1CCOCC1", "Potency": "inconclusive [inhibitor, partial curve]"}, {"smiles": "OCCNc1nc2ccccc2n1-c1ncnc2sc3c(c12)CCC3", "Potency": "inconclusive [inhibitor, single point]"}, {"smiles": "C[C@@H]1CN([C@@H](C)CO)C(=O)c2cc(NC(=O)C3CC3)ccc2O[C@H]1CN(C)C", "activity change, negative = inhibition": "inactive: 19.1%"}, {"smiles": "CS(=O)(=O)c1ccc(S(=O)CC(=O)OCc2ccccc2)c([N+](=O)[O-])c1", "note": "(stereo not given)", "Potency": "inconclusive [inhibitor, single point]"}, {"smiles": "COc1ccc(N2CCN(C(=O)NC(=O)c3ccccc3)CC2)cc1", "activity change, negative = inhibition": "inactive: 3.34%"}, {"smiles": "O=C(NCc1cccnc1)c1noc2c1CCCCC2", "activity change, negative = inhibition": "inactive: -3.29%"}, {"smiles": "O=C(NNC(=S)Nc1ccccc1C(F)(F)F)c1cccnc1", "activity change, negative = inhibition": "inactive: 10.1%"}, {"smiles": "Oc1cc(Cc2ccccc2)cnc1CN1CCOCC1", "Potency": "inconclusive [inhibitor, single point]"}, {"smiles": "Cc1ccc(C(=O)COC(=O)c2nc(Cl)ccc2Cl)cc1", "activity change, negative = inhibition": "inactive: 2.17%"}, {"smiles": "CC[C@H]1c2[nH]c3ccccc3c2C[C@@H]2C(=O)N(c3ccc(F)cc3)C(=O)N21", "Potency": "inconclusive [inhibitor, single point]"}, {"smiles": "Cc1ccc(OCC(=O)Nc2ccccc2C(=O)NC2CC2)cc1C", "Potency": "inconclusive [inhibitor, full curve, poor fit]"}, {"smiles": "N#Cc1c2ccc(OCC(N)=O)cc2n2ccccc12", "Potency": "active: 12.6 µM"}, {"smiles": "O=C(c1ccc(Cl)s1)N1CCCC(N2CCN(c3ccc(F)cc3)CC2)C1", "note": "(stereo not given)", "Potency": "inconclusive [inhibitor, single point]"}, {"smiles": "COc1ccccc1/C=N/NC(=S)Nc1cccnc1", "Potency": "inconclusive [inhibitor, single point]"}, {"smiles": "CCN(c1ccccc1)S(=O)(=O)c1ccc(Cl)c(NC(=O)COC(=O)c2ccc(Cl)c(N)c2)c1", "Potency": "inconclusive [inhibitor, partial curve]"}, {"smiles": "CNCCNC[C@H](Cc1cccc2ccccc12)NCCc1ccccc1", "Potency": "inconclusive [inhibitor, single point]"}, {"smiles": "CCOC(=O)C1=C(c2ccccc2)NC(=S)NC1c1ccc(C)c([N+](=O)[O-])c1", "note": "(stereo not given)", "Potency": "inconclusive [inhibitor, full curve, poor fit]"}, {"smiles": "COc1ccc2nc(NC(=O)c3ccccc3F)sc2c1", "Potency": "inconclusive [inhibitor, partial curve]"}, {"smiles": "ClCCN(CCCl)c1ccc(C=NNc2ncccn2)cc1", "Potency": "inconclusive [inhibitor, single point]"}, {"smiles": "COC(=O)c1ccccc1NC(=O)C1CC(=O)N(c2ccc(OC)cc2)C1", "note": "(stereo not given)", "Potency": "inconclusive [inhibitor, single point]"}, {"smiles": "CC(=O)N1CCCc2cc(S(=O)(=O)N(C)Cc3ccccc3)ccc21", "Potency": "active: 35.5 µM"}, {"smiles": "Cc1ccc(C)c(-n2c(-c3ccc(Br)cc3)csc2=NC(=O)c2ccccc2F)c1", "Potency": "active: 3.16 µM"}, {"smiles": "O=C(O)c1ccc(CN2CCCCC2)o1", "activity change, negative = inhibition": "inactive: 14.2%"}, {"smiles": "COc1cccc(/C=C/C(=O)NNC(=O)c2cc(C)oc2C)c1", "activity change, negative = inhibition": "inactive: -19.6%"}, {"smiles": "CN(C)CCN1C(=O)c2oc3ccc(Cl)cc3c(=O)c2C1c1cccc(Br)c1", "note": "(stereo not given)", "Potency": "inactive"}, {"smiles": "Cc1cc(C(F)(F)F)c2c(N)c(C(=O)Nc3cc(C)on3)sc2n1", "Potency": "inconclusive [inhibitor, partial curve]"}, {"smiles": "Cc1cccc(C(=O)OCC(=O)NN2C(=O)NC3(CCC(C)CC3)C2=O)c1O", "note": "(stereo not given)", "activity change, negative = inhibition": "inactive: -2.09% [at 8.37 µM]"}, {"smiles": "O=C(CCCOc1ccccc1)Nc1ncccn1", "activity change, negative = inhibition": "inactive: 22.1%"}, {"smiles": "CCc1cccc2sc(N3CCN(C(=O)c4ccc([N+](=O)[O-])o4)CC3)nc12", "Potency": "inconclusive [inhibitor, full curve]"}, {"smiles": "O=Cc1cc([N+](=O)[O-])ccc1N1CCN(Cc2ccc3c(c2)OCO3)CC1", "Potency": "inconclusive [inhibitor, single point]"}, {"smiles": "O=C(c1ccc(Cl)c(S(=O)(=O)N2CCCCC2)c1)N1CCN(c2ccccc2)CC1", "Potency": "inconclusive [inhibitor, single point]"}, {"smiles": "CN(C)S(=O)(=O)c1ccc(N2CCCC2)c(C(=O)Nc2nc3c(ccc4ccccc43)s2)c1", "Potency": "inconclusive [inhibitor, partial curve]"}, {"smiles": "COc1ccc(Cl)c2sc(N3CCN(C(=O)C4=COCCO4)CC3)nc12", "Potency": "inconclusive [inhibitor, partial curve]"}, {"smiles": "CCCCC(=O)Nc1cccc(NC(=O)c2cccc([N+](=O)[O-])c2)c1", "Potency": "inconclusive [inhibitor, full curve, poor fit]"}, {"smiles": "O=C(c1ccco1)N1CCCC(c2nc3c(nnn3Cc3ccc(F)cc3)c(=O)[nH]2)C1", "note": "(stereo not given)", "activity change, negative = inhibition": "inactive: 4.55%"}, {"smiles": "CC(Oc1ccc(F)cc1)C(=O)Nc1sc2c(c1C(=O)NCc1cccnc1)CCCC2", "note": "(stereo not given)", "Potency": "active: 2.51 µM"}, {"smiles": "Cc1ccccc1CSc1ncc(C#N)c(N)n1", "activity change, negative = inhibition": "inactive: 4.86%"}, {"smiles": "COc1ccc(/C=C/C(=O)NC(=S)NNC(=O)c2cccs2)cc1", "Potency": "inconclusive [inhibitor, partial curve]"}, {"smiles": "COc1cc(/C=C(\\C#N)C(N)=O)ccc1OS(=O)(=O)c1ccc(C)cc1", "activity change, negative = inhibition": "inactive: 32.2%"}, {"smiles": "CCOc1ccc(S(=O)(=O)N2CCC(C(=O)N3CCN(c4ccccc4F)CC3)CC2)cc1C", "Potency": "inconclusive [inhibitor, partial curve]"}, {"smiles": "CCOC(=O)c1c(C)[nH]c(C(=O)CN2C(=O)NC(C)(c3ccc(C)cc3)C2=O)c1C", "note": "(stereo not given)", "Potency": "inconclusive [inhibitor, partial curve]"}, {"smiles": "CC(=O)c1ccc(OCC(=O)N2CCCC2c2ccc3c(c2)OCCCO3)cc1", "note": "(stereo not given)", "activity change, negative = inhibition": "inactive: -3.47%"}, {"smiles": "CC(C)C[C@@H](CSc1ccc(Br)cc1)N1CCN(C)CCC1=O", "Potency": "inconclusive [inhibitor, full curve, poor fit]"}, {"smiles": "CC1CCN(C(=O)c2ccc(NS(=O)(=O)c3ccc4[nH]c(=O)[nH]c4c3)cc2)CC1", "activity change, negative = inhibition": "inconclusive: -90.4% [inhibitor]"}, {"smiles": "O=C(Cn1c(-c2ccccc2)c[n+]2ccsc12)c1ccc([N+](=O)[O-])cc1", "Potency": "active: 10 µM"}, {"smiles": "Cc1cc2c(=O)n(C)c(SCC(=O)Nc3cccc(F)c3)nc2s1", "Potency": "inconclusive [inhibitor, single point]"}, {"smiles": "CCOc1cc(/C=N/NC(N)=O)cc(Br)c1OCc1ccccc1", "Potency": "inconclusive [inhibitor, single point]"}, {"smiles": "O=C(COC(=O)/C(=C/c1cccs1)c1cccs1)NC(c1ccccc1)c1ccccc1", "Potency": "inconclusive [inhibitor, single point]"}, {"smiles": "C=CCC[C@H](Cc1ccc(F)cc1)C(=O)OC[C@H](Cc1c[nH]c2ccccc12)NC(=O)[C@@H](CC=C)CC(=O)N[C@H](CO)Cc1ccccc1", "Potency": "inconclusive [inhibitor, single point]"}, {"smiles": "O=C(O)CC/C(=N\\NC(=O)c1ccccc1)c1cccs1", "activity change, negative = inhibition": "inactive: 23.5%"}, {"smiles": "CN(CC(=O)Nc1cccc(F)c1)C(=O)c1ccccc1OCC(=O)Nc1cccc(C(F)(F)F)c1", "Potency": "inconclusive [inhibitor, single point]"}, {"smiles": "COc1ccc(Cl)cc1C(=O)Nc1ccccc1N1CCN(C(=O)C(C)C)CC1", "Potency": "inconclusive [inhibitor, single point]"}, {"smiles": "O=[N+]([O-])c1ccc(N2CCOCC2)cc1O", "activity change, negative = inhibition": "inactive: -3.27%"}, {"smiles": "c1ccc(C2=Nn3c(nnc3-c3cccnc3)SC2)cc1", "activity change, negative = inhibition": "inactive: 6.03%"}, {"smiles": "CN(CC(=O)Nc1ccc(F)cc1)CC(=O)N1CCc2ccccc21", "Potency": "inconclusive [inhibitor, single point]"}, {"smiles": "CCOC(=O)N1CCN(S(=O)(=O)N2CCCC(C(=O)NCCc3ccc(OC)c(OC)c3)C2)CC1", "note": "(stereo not given)", "activity change, negative = inhibition": "inactive: 1.81%"}, {"smiles": "c1ccc2c(c1)Cc1cc(CN3CCOCC3)ccc1-2", "activity change, negative = inhibition": "inactive: 12.4%"}, {"smiles": "COc1ccc(C(=O)CSC2=C(C#N)C3(CCCCC3)C(C#N)=C(N)N2)cc1", "Potency": "inconclusive [inhibitor, partial curve]"}, {"smiles": "O=C(CCNS(=O)(=O)c1ccc(OC(F)(F)F)cc1)NCCc1c[nH]c2ccccc12", "Potency": "inconclusive [inhibitor, single point]"}, {"smiles": "COc1ccc(NC(=O)O/N=C2/CCCc3ccc(OC)cc32)cc1", "Potency": "active: 2.82 µM"}]}]}
